From article PMC4336329 (PLoS ONE, 2015)
Among all 310,000 compounds or so, about 14,000 (4.5%) showed an effect of 50% or more. Effects have a minus sign here. Some of the results follow.

The molecules below were run against human ether-à-go-go-related gene (hERG) potassium channel (human, UniProt Q12809) (assay: primary screen, population patch clamp on CHO cells stably expressing hERG).
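Also: peak tail current of the secondary pulse compared with the same well before compound.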

Sequence of human ether-à-go-go-related gene (hERG) potassium channel (Q12809 whole entry, looked up): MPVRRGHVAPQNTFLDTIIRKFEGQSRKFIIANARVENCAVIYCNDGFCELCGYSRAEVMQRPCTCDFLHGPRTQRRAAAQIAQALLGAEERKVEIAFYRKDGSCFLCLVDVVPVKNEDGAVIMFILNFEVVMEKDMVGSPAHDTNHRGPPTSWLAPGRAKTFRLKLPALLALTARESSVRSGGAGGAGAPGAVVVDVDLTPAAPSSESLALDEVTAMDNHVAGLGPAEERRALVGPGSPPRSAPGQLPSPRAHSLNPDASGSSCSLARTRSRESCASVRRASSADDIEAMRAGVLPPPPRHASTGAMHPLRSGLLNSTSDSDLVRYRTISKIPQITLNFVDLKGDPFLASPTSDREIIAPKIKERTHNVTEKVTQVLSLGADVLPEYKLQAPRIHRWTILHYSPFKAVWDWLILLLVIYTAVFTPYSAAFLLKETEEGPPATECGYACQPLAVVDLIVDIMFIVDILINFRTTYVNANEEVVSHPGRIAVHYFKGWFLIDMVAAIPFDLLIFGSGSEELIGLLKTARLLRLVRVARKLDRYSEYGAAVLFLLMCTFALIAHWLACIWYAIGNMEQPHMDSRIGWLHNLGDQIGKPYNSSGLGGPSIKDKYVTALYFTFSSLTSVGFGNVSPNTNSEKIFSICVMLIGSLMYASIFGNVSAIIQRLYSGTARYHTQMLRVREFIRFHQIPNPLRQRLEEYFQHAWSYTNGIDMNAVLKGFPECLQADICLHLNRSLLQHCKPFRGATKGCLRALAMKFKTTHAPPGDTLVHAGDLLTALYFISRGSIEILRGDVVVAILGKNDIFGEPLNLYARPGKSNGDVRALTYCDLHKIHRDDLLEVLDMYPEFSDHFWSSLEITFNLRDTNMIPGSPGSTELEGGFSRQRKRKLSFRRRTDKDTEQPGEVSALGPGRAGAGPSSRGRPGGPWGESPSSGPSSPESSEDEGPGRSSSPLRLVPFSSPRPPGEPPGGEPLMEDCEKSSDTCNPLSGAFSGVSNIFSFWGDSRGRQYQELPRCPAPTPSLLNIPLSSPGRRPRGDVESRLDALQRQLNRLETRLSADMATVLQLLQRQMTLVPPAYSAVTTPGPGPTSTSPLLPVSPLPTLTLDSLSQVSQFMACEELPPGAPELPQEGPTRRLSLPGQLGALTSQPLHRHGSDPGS

Row | Compound | hERG current change (%, negative = inhibition) at 10uM [%]
1 | COC(=O)C(C)N1CCC(=O)c2ccccc2S1(=O)=O (centres unmarked) | 14.9
2 | COc1cccc(/C=C2\SC(=S)N(CCC(=O)NC3C=CS(=O)(=O)C3)C2=O)c1 (centres unmarked) | 6.17
3 | CCNCCNC(=O)c1c(O)c2ccccc2n(CC)c1=O.Cl | 1.76
4 | O=C(c1cc(Br)c[nH]1)N1CCCCC1 | 17.1
5 | O=C(NC1CC1)C1CC(=O)N(c2ccc(F)cc2)C1 (centres unmarked) | 19.1
6 | CCCn1c(SCC(=O)N2c3ccc(F)cc3CCC2C)nnc1-c1ccccn1 (centres unmarked) | -14.7
7 | NC(N)=NC(N)=Nc1ccc2ccccc2c1 | 17.7
8 | Cc1nc2n(c(=O)c1CCN1CCC(c3noc4cc(F)ccc34)CC1)CCCC2 | -68
9 | COc1ccc(Cc2nnc(NC(=O)c3cccc(F)c3)s2)cc1OC | 10.1
10 | O=C(Nc1ccccc1CC[N+](=O)[O-])N1CCN(c2ccccc2)CC1 | 2.62
11 | Cc1nc2cc(C(=O)N3CCC4(CC3)OCCO4)ccc2n1-c1ccc(Br)cc1 | -26.9
12 | O=C(c1cccc2cccc(O)c12)N1CCCCC1 | -6.31
13 | COc1ccc(NC(=O)c2ccccc2OCc2c(C)noc2C)cc1OC | -37.5
14 | Cc1nn(-c2ccccc2)c2c1C(=O)N(Cc1ccccc1)C(=O)C(C)(C)C2 | -15.2
15 | CCOc1ccc(NC(=O)CSc2nnc(C3CC3)n2N)cc1 | 8.79
16 | COc1cc(CN2CCC(C(=O)N3CCC(C)CC3)CC2)cc(Br)c1O.O=C(O)C(=O)O | -35.9
17 | O=C(OCc1nnc(-c2ccccc2)o1)c1ccc2c(c1)OCCO2 | -8.29
18 | COC(=O)C1=C(C)NC(C)=C(C(=O)OC)C1C(=O)OCC(=O)c1ccc(Br)cc1 | -30.3
19 | CS(=O)(=O)N(CC(=O)Nc1cccnc1)c1ccc2c(c1)OCO2 | 2.43
20 | O=c1c2[nH]cnc2n(-c2cccc(F)c2)c(=O)n1Cc1ccccc1 | -10.3
21 | Cc1cc(C)n2nc(SCc3ccccc3F)nc2n1 | 6.67
22 | CCOc1ccc(N2C(=O)CC(NCC#N)C2=O)cc1 (centres unmarked) | 15.8
23 | O=C1C(=O)N(CCN2CCOCC2)C(c2cccnc2)/C1=C(/O)c1ccc(Cl)cc1 (centres unmarked) | 18.6

Row | Compound | hERG current change (%, negative = inhibition) at 10uM [%]
24 | O=C(Nc1ccccc1Cl)NC1(C(=O)NCc2cccnc2)CCCCC1 | 15.8
25 | O=C(Nc1ccc(F)cc1)c1cccnc1NCCc1ccccc1 | -13.3
26 | N#CCCn1cc(C(N)=O)c(-c2cccs2)n1 | 20.5
27 | COc1ccc(CCn2ccc(O)c(Cc3ccc(Cl)cc3)c2=O)cc1OC | 10.3
28 | CN(C)C(=O)CSc1nnc(-c2cc(-c3cccs3)nc3ccccc23)o1 | -1.64
29 | O=C(N/N=C/C(Br)=C/c1ccccc1)c1ccccc1[N+](=O)[O-] | 13.8
30 | COc1ccc2[nH]c(CN3CCN(CC(C)C)C(CCO)C3)c(C)c2c1 (centres unmarked) | 5.18
31 | CCN1C(=O)C(CC(=O)Nc2ccc(F)cc2)N(CCc2ccc(OC)cc2)C1=S (centres unmarked) | -0.637
32 | COc1cc(OC)c(OC)cc1/C=N/NC(=O)CC1C(=O)NN=C1C (centres unmarked) | 1.16
33 | Cc1cc(C)n2c(SCC(=O)Nc3ccc(F)cc3)nnc2n1 | 9.45
34 | COc1cc(NC(=O)CN2CCN(c3ccccc3O)CC2)c(C)cc1[N+](=O)[O-] | 18.5
35 | Cc1cc(Cc2ccc([N+](=O)[O-])cc2)c(C)cn1 | -57.8
36 | COc1ccccc1-n1c(SC(C)C(=O)NCC2CCCO2)nc2cc(Cl)ccc2c1=O (centres unmarked) | 0.554
37 | Cc1nonc1NC(=O)CSc1nc(CCC2CCCC2)nc2ccccc12 | 3.64
38 | O=[N+]([O-])c1ccc(N=Cc2sc3ccccc3c2O)cc1 | 15.3
39 | Fc1ccc(CSc2ncnc3c2oc2ccccc23)cc1 | 0.614
40 | COc1cccc(-c2c(C(=O)N/N=C/C3CC=CCC3)nnn2-c2nonc2N)c1 (centres unmarked) | 2.44
41 | Cc1ccc2nc(C3CCCCC3)[nH]c2c1 | -2.01
42 | O=C(O)c1ccccc1C(=O)NCCCCCCNC(=O)c1ccccc1C(=O)O | 7.63
43 | NC(=O)c1ccsc1NC(=O)COC(=O)c1ccc(Cl)nc1 | 5.07
44 | CCN(CC)S(=O)(=O)c1cc(NC(=O)CSc2nccn2C)ccc1C | -1.59
45 | CN1CCC(OC(=O)COc2ccc(Br)cc2)CC1.Cl | -30.2
46 | COc1ccc(NC(=O)C23CCC(C)(C(=O)O2)C3(C)C)cc1 (centres unmarked) | 3.14

Row | Compound | hERG current change (%, negative = inhibition) at 10uM [%]
47 | CCOC(=O)CCc1c(C)c2ccc(OCc3nn[nH]n3)cc2oc1=O | 20
48 | O=C(Nc1ccc(Cl)cc1)NC1CCCCC1 | 6.51
49 | COc1ccc(N2CCN(C(=O)CN3CCN(c4nc(-c5ccc(F)cc5)cs4)CC3)CC2)cc1 | -1.23
50 | COc1ccc2oc(=O)cc(CN3CCN(Cc4ccc(OC)c(OC)c4OC)CC3)c2c1 | -39.7
51 | O=C(c1ccc(S(=O)(=O)N2CCOCC2)cc1)N1CCc2ccccc21 | 26.2
52 | COc1ccccc1NC(=O)C(=O)NCCCN1CCCC1=O | -0.852
53 | Cc1cc(NCc2ccccn2)nc2ccccc12 | -15.4
54 | COc1ccc(C2C(C#N)=C(N)Oc3c2oc(CO)cc3=O)c(OC)c1OC (centres unmarked) | 6.35
55 | O=C(CSc1nnc(NC(=O)C2CC2)s1)Nc1ccc(F)cc1F | -19.9
56 | O=S(=O)(Nc1ccncc1)c1cc(Cl)c(Cl)cc1Cl | 0.0869
57 | CCN1CCN(C(c2cccs2)C(C)NC(=O)NC2CCCCC2)CC1 (centres unmarked) | -45.5
58 | COC(=O)[C@H]1CCCN1C(=O)Nc1cccc(Oc2c(F)c(F)c(F)c(F)c2F)c1 | -48
59 | CC(=O)Nc1ccc(Oc2cnc3ccccc3n2)cc1 | -9.21
60 | Nc1nc(Nc2ccccc2)nc(C(F)(F)F)n1 | 2.08
61 | CC1(C)CC(=O)c2cnc(NC(=O)C3CCCC3)nc2C1 | -12.6
62 | CC(C)(Oc1ccc(Cl)cc1)C(=O)OCC(=O)NCCc1ccccc1 | 5.82
63 | CC(C)(C)C(=O)Nc1ccccc1C(=O)NCc1ccco1 | -16.7
64 | CC1(C)CC2CN(C(=O)Cc3ccccc3)C(C)(C2)C1 (centres unmarked) | 0.0688
65 | Cc1ccc(S(=O)(=O)N(CC(=O)NC2CC2)c2ccc(C)c(Cl)c2)cc1 | 5.27
66 | C=CCN(CC=C)C(=O)Nc1cc(Cl)ccc1OC | -8.71
67 | CCN1CCC[C@H]1CNC(=O)c1c(O)c(Cl)cc(Cl)c1OC.O=C(O)C(O)C(O)C(=O)O | -13.8
68 | COc1cccc(/C=N/NC(=O)CCn2nnc3ccccc32)c1 | -8.76
69 | CC(=O)c1cccc(NC(=O)c2ccc3ccccc3c2)c1 | 6.07

Row | Compound | hERG current change (%, negative = inhibition) at 10uM [%]
70 | CCOc1cc(CNCCCN2CCOCC2)cc(Cl)c1OCC(=O)NC(C)(C)C.Cl | 5.38
71 | COC(=O)c1cn(C)c2ccc(S(=O)(=O)N3CCOCC3)cc2c1=O | 13
72 | CCCOc1ccc(N2C(=O)CC(N(CCC)C(=O)CCC(=O)O)C2=O)cc1 (centres unmarked) | 15.1
73 | COP(=O)(OC)C1(Nc2ccc(C)cc2)CCCCC1 | -21.4
74 | Fc1ccc(CN2CCN(c3ncccn3)CC2)cc1 | -3.32
75 | CC1(C2CC2)NC(=O)NC1=O (centres unmarked) | -10.3
76 | CCCCc1ccc(NC(=O)COc2ccc(C(=O)Nc3ccccc3C)cc2)cc1 | 11.6
77 | CC(=O)C1=C(c2ccc(Br)cc2)C(=O)c2ccccc2C1=O | -6.47
78 | COc1ccc(CCNC(=O)c2cccc(S(=O)(=O)N3CCCC3)c2)cc1OC | -5.03
79 | O=C(Cn1nc(CNc2ccc(Cl)cc2)[n+]2c1CCCCC2)c1ccc(Br)cc1.[Br-] | -61.6
80 | C/C(N)=C(/C#N)C(=O)CSc1nc2ccccc2c(=O)n1-c1ccc(C)cc1 | 2.95
81 | CCN(c1ccccc1)S(=O)(=O)c1ccc(Cl)c(NC(=O)COC(=O)c2ccc[nH]c2=O)c1 | 3.13
82 | CCOC(=O)c1c(C)c(C)n(Cc2cccc(OC)c2OC)c1C | -0.614
83 | O=C(OCC(=O)N1CCCC1)c1ccccc1C(=O)c1ccccc1 | 1.74
84 | O=C(/C=C/c1ccco1)Nc1nc(-c2ccc(F)c(F)c2)cs1 | 7.43
85 | O=C(c1cccs1)N1CCN(S(=O)(=O)c2ccccc2)CC1 | -6.98
86 | Cc1ccc(N2CCN(C(=O)c3cccc([N+](=O)[O-])c3)CC2)cc1Cl | -19.1
87 | COc1ccc(NC(=O)c2[nH]c(C)c(C(C)=O)c2C)cc1Cl | -3.63
88 | CCCC(=O)Nc1cc(-c2nnc(OC)c3ccccc23)ccc1N1CCCCC1 | -36.3
89 | COC(=O)CCN1CCc2cc(N=Nc3ccc([N+](=O)[O-])cc3)ccc21 | 18
